From patent US10195156B2, “Compounds and compositions for intracellular delivery of agents” (ModernaTX, Inc., priority 2015, dated 2019)
The name of at least one read-out is uncertain.

System: Luc expression
Assay: Luc expression in CD-1 mice (AUC relative to MC3)
Format: in vivo
Settings: for Lipid/MC3 Luc CD-1 (mice): Luc expression relative to MC3, CD-1 mice; for Liver/Spleen Ratio / Lipid/MC3 AUC: Table 7c; for Lipid/MC3 AUC: AUC relative to MC3
Procedure: FIG. 15 is a graph summarizing luciferase expression levels at 6 h after administration of nanoparticle compositions containing compounds of the disclosure to CD-1 mice at a dose of 0.5 mpk. Total light flux values were acquired via body luminescent imaging (BLI) 6 h after administration. In this Figure, the numbers 1-7 and 10 refer to the compositions containing Compounds 4-10 and MC3 respectively.
In contrast, hEPO expression in rats induced by administration of a nanoparticle composition including a compound according to one of formulae (I), (Ia1)-(Ia6), (Ib), (II), (IIa), (III), and (IIIa) was substantially […] than that measured for MC3. […] Table 7c and 7d show additional protein expressions and clearance data from compositions with various compounds disclosed herein as compared to with MC3.

Structure (SMILES)	Lipid/MC3 Luc CD-1 (mice)	Liver/Spleen Ratio	Lipid/MC3 AUC
CCCCCCCCCCCCN(CCCCCCCCCCCC)CCN(CCCCCCCCCCCC)CC(=O)N1CC2CC1CN2C(=O)CN(CCCCCCCCC)CCCCCCCCC (centres unmarked) [Compound 43, 2-((2-(Didodecylamino)ethyl)(dodecyl)amino)-1-(5-(dinonylglycyl)-2,5-diazabicyclo[2.2.1]heptan-2-yl)ethan-1-one]	0.34	–	–
CCCCCCCCCCCCN(CCCCCCCCCCCC)CCN(CCCCCCCCCCCC)CCN1CCN(CCN(CCCCCCCCCCCC)CCCCCC(=O)OCCCCC)CC1 [Compound 12, Pentyl 6-((2-(4-(2-((2-(didodecylamino)ethyl)(dodecyl)amino)ethyl)piperazin-1-yl)ethyl)(dodecyl)amino)hexanoate]	0.21	–	–
CCCCCCCCCN(CCCCCCCCC)CCN(CCCCCCCCC)CCC1CCN(C(=O)CN(CCCCCCCCC)CCCCCCCCC)CC1 [Compound 50, 2-(Dinonylamino)-1-(4-(2-((2-(dinonylamino)ethyl)(nonyl)amino)ethyl)piperidin-1-yl)ethan-1-one]	0.01	–	–
CCCCCCCCCN(CCCCCCCCC)CCN(CCCCCCCCC)CC(=O)N1CCN(C(=O)CN(CCCCCCCCC)CCCCCCCC(=O)OC)CC1 [Compound 44, Methyl 8-((2-(4-(N-(2-(dinonylamino)ethyl)-N-nonylglycyl)piperazin-1-yl)-2-oxoethyl)(nonyl)amino)octanoate]	0.82	–	–
CCCCCCCCCN(CCCCCCCCC)CCN(CCCCCCCCC)CC(=O)N1CCN(C(=O)CN(CCCCCCCCC)CCCCC(=O)OCCCC)CC1 [Compound 55, Butyl 5-((2-(4-(N-(2-(dinonylamino)ethyl)-N-nonylglycyl)piperazin-1-yl)-2-oxoethyl)(nonyl)amino)pentanoate]	–	9	0.14
CCCCCCCCCN(CCCCCCCC(=O)OC)CCC1CCN(C(=O)CN(CCCCCCCCC)CCN(CCCCCCCCC)CCCCCCCCC)CC1 [Compound 57, Methyl 8-((2-(1-(N-(2-(dinonylamino)ethyl)-N-nonylglycyl)piperidin-4-yl)ethyl)(nonyl)amino)octanoate]	–	15	0.85
CCCCCCCCCN(CCCCCCCCC)CCN(CCCCCCCCC)CC(=O)N1CCN(C(=O)CN(CCCC(=O)OCCCCC)CCCC(=O)OCCCCC)CC1 [Compound 72, Dipentyl 4,4′-((2-(4-(N-(2-(dinonylamino)ethyl)-N-nonylglycyl)piperazin-1-yl)-2-oxoethyl)azanediyl)dibutyrate]	–	6	0.46
CCCCCCCCCN(CCCCCCCCC)CCN(CCCCCCCC(=O)OC)CC(=O)N1CCN(C(=O)CN(CCCCCCCCC)CCCCCCCCC)CC1 [Compound 47, Methyl 8-((2-(dinonylamino)ethyl)(2-(4-(dinonylglycyl)piperazin-1-yl)-2-oxoethyl)amino)octanoate]	0.22	–	–
CCCCCCCCCCCCCCN(CCCCCCCCCCCCCC)CCN1CCN(CCN(CCCCCCCCC)CCN(CCCCCCCCC)CCCCCCCCC)CC1 [Compound 20, N^1-(2-(4-(2-(Ditetradecylamino)ethyl)piperazin-1-yl)ethyl)-N^1,N^2,N^2-trinonylethane-1,2-diamine]	5.0	–	–
CCCCCCCCCN(CCCCCCCCC)CCN(CCCCCCCCC)CC(=O)N1CCN(C(=O)CN(CCCCCCCCC)CCCCCCC(=O)OCC)CC1 [Compound 53, Ethyl 7-((2-(4-(N-(2-(dinonylamino)ethyl)-N-nonylglycyl)piperazin-1-yl)-2-oxoethyl)(nonyl)amino)heptanoate]	–	17	0.07
CCCCCCCCCCCCCCN(CCCCCCCCCCCCCC)CC(=O)N1CCN(C(=O)CN(CCCCCCCCC)CCN(CCCCCCCCC)CCCCCCCCC)CC1 [Compound 51, 2-((2-(Dinonylamino)ethyl)(nonyl)amino)-1-(4-(ditetradecylglycyl)piperazin-1-yl)ethan-1-one]	5.22	–	–
CCCCCCCCCCCCN(CCCCCCCCCCCC)CCN(CCCCCCCCCCCC)CC(=O)N1CCN(C(=O)CN(CCCCCCCCCCCC)CCCCCCCCCCCC)CC1 [Compound 11, 2-(Didodecylamino)-1-(4-(N-(2-(didodecylamino)ethyl)-N-dodecylglycyl)piperazin-1-yl)ethan-1-one]	1.03	–	–
CCCCCCCCCN(CCCCCCCC(=O)OC)CCN(CCCCCCCCC)CC(=O)N1CCN(C(=O)CN(CCCCCCCCC)CCCCCCCCC)CC1 [Compound 46, Methyl 8-((2-((2-(4-(dinonylglycyl)piperazin-1-yl)-2-oxoethyl)(nonyl)amino)ethyl)(nonyl)amino)octanoate]	0.46	–	–
CCCCCCCCCN(CCCCCCCCC)CCC1CCN(C(=O)CN(CCCCCCCCC)CCN(CCCCCCCCC)CCCCCCCCC)CC1 [Compound 49, 2-((2-(Dinonylamino)ethyl)(nonyl)amino)-1-(4-(2-(dinonylamino)ethyl)piperidin-1-yl)ethan-1-one]	5.23	–	–
CCCCCCCCCN(CCCCCCCCC)CCC(=O)N1CCN(C(=O)CCN(CCCCCCCCC)CCN(CCCCCCCCC)CCCCCCCCC)CC1 [Compound 52, 3-(Dinonylamino)-1-(4-(3-((2-(dinonylamino)ethyl)(nonyl)amino)propanoyl)piperazin-1-yl)propan-1-one]	7.46	–	–
CCCCCCCCCN(CCCCCCCC(=O)OC)CCN(CCCCCCCC(=O)OC)CC(=O)N1CCN(C(=O)CN(CCCCCCCCC)CCCCCCCCC)CC1 [Compound 48, Methyl 8-((2-(4-(dinonylglycyl)piperazin-1-yl)-2-oxoethyl)(2-((8-methoxy-8-oxooctyl)(nonyl)amino)ethyl)amino)octanoate]	0.01	–	–
CCCCCCCCCN(CCCCCC(=O)OCCC)CCC1CCN(C(=O)CN(CCCCCCCCC)CCN(CCCCCCCCC)CCCCCCCCC)CC1 [Compound 59, Propyl 6-((2-(1-(N-(2-(dinonylamino)ethyl)-N-nonylglycyl)piperidin-4-yl)ethyl)(nonyl)amino)hexanoate]	–	5	0.84
CCCCCCCCCN(CCCCCCCCC)CCN(CCCCCCCCC)CC(=O)N1CCN(C(=O)CN(CCCCCCCCC)CCCC(=O)OCCCCC)CC1 [Compound 45, Pentyl 4-((2-(4-(N-(2-(dinonylamino)ethyl)-N-nonylglycyl)piperazin-1-yl)-2-oxoethyl)(nonyl)amino)butanoate]	6.50	–	–
CCCCCCCCCN(CCCOC(=O)CCCCC)CCC1CCN(C(=O)CN(CCCCCCCCC)CCN(CCCCCCCCC)CCCCCCCCC)CC1 [Compound 61, 3-((2-(1-(N-(2-(Dinonylamino)ethyl)-N-nonylglycyl)piperidin-4-yl)ethyl)(nonyl)amino)propyl hexanoate]	–	30	3.27
CCCCCCCCCN(CCCCCCCCC)CCN(CCCCCCCCC)CC(=O)N1CCN(C(=O)CN(CCCCCCCCC)CCCOC(=O)CCCCC)CC1 [Compound 56, 3-((2-(4-(N-(2-(Dinonylamino)ethyl)-N-nonylglycyl)piperazin-1-yl)-2-oxoethyl)(nonyl)amino)propyl Hexanoate]	–	29	1.25
CCCCCCCCCN(CCCC(=O)OCCCCC)CCN(CCCCCCCCC)CC(=O)N1CCN(C(=O)CN(CCCCCCCCC)CCCC(=O)OCCCCC)CC1 [Compound 71, Pentyl 4-(nonyl(2-(4-(N-nonyl-N-(2-(nonyl(4-oxo-4-(pentyloxy)butyl)amino)ethyl)glycyl)piperazin-1-yl)-2-oxoethyl)amino)butanoate]	–	25	1.25
